In PMC12136788:
Changes are numbered by the printed parent chain. The list shows a part of the results.

B1: chr10:79719409:79719410:+_ENSMUSG00000020153_ENSMUST00000020361|mus_hu|FALSE|FALSE (ssRNA)
RNA: GGGAGUUCUACAGUCCGACGAUCCCAGAUCUGCAGCCUCCGCUCCCGCUUGAUCUUCCUCUGCAGCUGCAGGAUGCCGUAGAGCAGGGCCUCGGCCGUAGGUGGGCAGCCUGGGAUGUAGAUGUCCACGGGCACGAUGCGGUCCAACAGAGGAUUGAGCAUCA
B2: chr2:155973683:155973684:-_ENSMUSG00000027620_ENSMUST00000109587|mus_mus|motif|central (ssRNA)
RNA: GGGAGUUCUACAGUCCGACGAUCCAUGGACAUUUAAAACAGCAGAACAAGAGAACAGCUUUGCAUAAAGUAGGAUUUGCGGGUUAGGGAUAAUGAGCACACUGCAUUCCUGUUAACAUUUUUAUUUUUCAAGGUAACAGGAGUCAACAGAGGAUUGAGCAUCA
B3: chr2:232320318:232320319:-_ENSG00000115053_ENST00000322723|hu_hu|hu_hu_hu_mus_True|18_78 (ssRNA)
RNA: GGGAGUUCUACAGUCCGACGAUCACUAUUAAAGUCUACAAAACCAAACCCUUUGGAGGACCCAGUUUCCCGAUCAGUGACUAUUCUUGCACGAACAGAGCCCUCAAAUGAUUCUUUUAAUGUCUCUUCAGUGGUAUCCUCAGACAACAGAGGAUUGAGCAUCA
B4: chr2:232320318:232320319:-_ENSG00000115053_ENST00000322723|hu_hu|hu_hu_hu_mus_True|68_68 (ssRNA)
RNA: B3 RNA with G57A, C60A, A72G, U120G
B5: 11923595_11925804_69_5pUTR_ENSMUSG00000022205_ENSMUST00000022816|mouse|control|control (ssRNA)
RNA: GGGAGUUCUACAGUCCGACGAUCAGUUCCUUUGAUUUAGGCAUUGCUCCGCUCCGGCCGACCAAAAACCUCUGCCUCGCUCGCUCGCCUACUCCGGACUGACAGAGAGCCGGAAAUGACGGCAGCUUAGAGGCCCUGGCUCCGCAACAGAGGAUUGAGCAUCA
B6: chr7:151048522:151048523:+_ENSG00000013374_ENST00000566856|hu_mus|hu_hu_hu_mus_True|68_78 (ssRNA)
RNA: GGGAGUUCUACAGUCCGACGAUCCUGUUUCUUAUUUAUUACGAUCUUGAUGUAAUUUUCUUGAAGUCCAAAGGUUUCAGCUAUUUGACACCUCAGGUCUCUACCAGUGACAUGCAAGCGGGUCUCCAACAAGCUUUUCUUAUCCAACAGAGGAUUGAGCAUCA
B7: chr4:25749455:25749456:-_ENSG00000091490_ENST00000264868|hu_hu|hu_hu_hu_mus_False|58_108 (ssRNA)
RNA: GGGAGUUCUACAGUCCGACGAUCGCAAGCACUAGGAUAGAAAAAUCCACAGGGGGAAAAAAUGUAAACCAAUGUACAAAGCUAUUGCCUUCCCUGUGUGUGGAGUGUUUGUCUCAAGGCUCCUUCUAGCUGCUGGAUUUGGGACAACAGAGGAUUGAGCAUCA
B8: chr14:21319500:21319501:-_ENSMUSG00000021816_ENSMUST00000161445|mus_hu|FALSE|FALSE (ssRNA)
RNA: GGGAGUUCUACAGUCCGACGAUCGAGUUGUAUUCCAGGGCAUGAGGGAAGCAGGCCACCAAAGUAAAGGGAAAUACCAAACUACAGUGGCAAUCAAUACAGGUCAAUAAUUGUGAAAAAUUAGCACAUGGUUCCAUUUAGUUUCAACAGAGGAUUGAGCAUCA
B9: 88342591_88342711_3111_3pUTR_ENSMUSG00000074480_ENSMUST00000172699|mouse|control|control (ssRNA)
RNA: GGGAGUUCUACAGUCCGACGAUCCUCCUUCCUCUCCCCUCCCAGGCUGGUGGUCUGGAGGGGAAGGCUGAGGAGAGGCAAGUUAAUUCACAAGAGGCAGGAGAGAGAGAGACCUCCCUCUGCCCUCAUCCCACAUCCUUUCCCCAACAGAGGAUUGAGCAUCA
B10: chr12:48362563:48362564:+_ENSG00000134291_ENST00000256686|hu_hu|hu_hu_hu_mus_False|78_98 (ssRNA)
RNA: GGGAGUUCUACAGUCCGACGAUCUCCGUCAAGCCCUUCAAGCCCCACUUGCGGGGGUGGUAAAAACCACUUUGUAUGGGGAAGGAAAAGAAACGCCAAAAACUUUCCAAAAAGCGGGGGUGGGGUGAGGCGGGAGGGGGAGGUCAACAGAGGAUUGAGCAUCA
B11: chr4:57314706:57314707:+_ENSG00000128050_ENST00000264221|hu_hu|motif|central (ssRNA)
RNA: GGGAGUUCUACAGUCCGACGAUCCAGUAUUUCAAAUAUAGCCUGUGUAGCAUGACUCAUGAUAUCCACUUCAGUCUGGCCGGUAAGAAGUCCAGCAAAGCAAAAUUUUGCAGCAAUCAGCUGUUCCUCAGACCACUGUGGGUCCAACAGAGGAUUGAGCAUCA
B12: chrX:140365796:140365797:-_ENSMUSG00000031285_ENSMUST00000033642|mus_mus|mus_mus_mus_hu_False|58_58 (ssRNA)
RNA: GGGAGUUCUACAGUCCGACGAUCCUUCUCAUUACUCAGUGCCUGCAAGGUUCUGGUUCGGUAGAAGCUACAGUGGGCACUAUGAGUGGGGCUAGGCAACCCAUUCAUCCGGGAGCCUCGCAUGUUCCUGGAUGUCUUAUCUCUCAACAGAGGAUUGAGCAUCA
B13: chr2:228220401:228220402:+_ENSG00000168958_ENST00000354503|hu_mus|motif|central (ssRNA)
RNA: GGGAGUUCUACAGUCCGACGAUCUAAUGAAGCUGCAUCUACCACAGUCAUGUCAUCUGAAGCUCCUUCAAUGGCUGCAUCGGGGUUUGAAAUGCCAUACCUGACGUUGUCAUGAUGAGGAUUAGAAGUGGCGGCAGCUGACCCCAACAGAGGAUUGAGCAUCA
B14: 144383123_144383243_104_3pUTR_ENSMUSG00000037062_ENSMUST00000163279|mouse|control|control (ssRNA)
RNA: GGGAGUUCUACAGUCCGACGAUCAGGUGGCGGGAGGCGGCGCCAGCCCCGCGCAGCUGUCGUUUCCUGGCGGGGAGGCGGGGGAGGGAAGAGGGCGGGCGCCCGCGAGCGCGCGCCUCUCCGCUCACACGCUGGGCCUGUCGCCAACAGAGGAUUGAGCAUCA

These binders were tested against T1, UNK ZnF1-3 (human, UniProt Q9C0B0 31-174) (assay: nsRBNS (natural sequence RNA bind-n-seq); RBNS binding buffer (assumed for nsRBNS): 25 mM Tris pH 7.5, 150 mM KCl, 3 mM MgCl2, 0.01% Triton X-100, 500 ug/ml BSA, 20 U/ml SUPERase-In, 4 C; UNK is unkempt and MSI1 is Musashi-1; names of the RNAs are library labels; protein concentration not given here; high values mean tight binding).
T1 sequence: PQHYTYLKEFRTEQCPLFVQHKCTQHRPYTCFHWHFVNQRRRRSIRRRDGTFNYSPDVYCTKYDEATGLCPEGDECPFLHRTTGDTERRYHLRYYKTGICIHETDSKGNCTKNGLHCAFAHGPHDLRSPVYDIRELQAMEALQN

Binder	binding signal [enrichment R]
B1	0.51
B2	1.54
B3	0.969
B4	0.394
B5	0.21
B6	0.675
B7	1.26
B8	2.07
B9	0.75
B10	2.08
B11	1.05
B12	0.389
B13	0.787
B14	0.964
